Out of some 44,000 compounds screened, about 340 (0.77%) were called active. Inconclusive results (about 5%) are left out. The call rests on the fitted dose curve; in most records, active means well fitted inhibition curve with a large enough effect; inconclusive means small, poorly fitted or top-dose-only effect; inactive means flat fitted curve, though single readings scatter. The list shows a part of the results.
Potency means the concentration at half of the fitted maximal effect.

This experiment can be described thus: Acumen qHTS Assay for Inhibitors of the mTORC1 Signaling Pathway in MEF (Tsc2-/-, p53-/-) Cells: Sytravon. Further: nearly all actives have a fitted effect of over 50% in size.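 On activity change, negative = inhibition: plate controls were DMSO for no effect and rapamycin for full effect.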 The note with it: phospho-rpS6 immunofluorescence/PI, 24 h; series mostly up to 38.3 µM; activity change, negative = inhibition: at the top concentration. The procedure, abridged:
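Tsc2-/-, p53-/- MEFs (empty-vector stable line) in DMEM + 10% FBS were treated with compounds 24 h at 37 degree Celsius, fixed, and immunostained for phospho-rpS6 (Alexa-488) with propidium iodide counterstain. Laser-scanning cytometry gave % positive cells, normalized against 7.5 nM rapamycin and DMSO.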
In the case of `CCCN(CCC)C(=O)Cn1c(=O)n(-c2ccc(OC)cc2)c(=O)c2ccc(C(=O)NCc3ccc(C)cc3)cc21`, the “activity change, negative = inhibition” value is inactive: 1.96%.
The same measure, in the same setting: as for `Cc1ccc(-n2c(SCC(=O)Nc3cccc(C)c3)nc3c(oc4ccccc43)c2=O)cc1`, the figure is inactive: 1%; as for `CCOC(=O)C1CCCN(C(=O)c2ccc(-n3ccc4ccccc43)s2)C1` (stereo unspecified), inactive: -10.8%.
The same measure, in the same setting: as for `COc1cccc(-c2ccc3c(N)c(C(=O)Nc4cc(F)ccc4F)sc3n2)c1`, the figure is inactive: -11.3%; as for `Cc1cccn2c(=O)c3cc(C(=O)NCc4cccnc4)c(=N)n(CCCO)c3nc12`, inactive: -9.73%; as for `CC(C)(C)c1ccc(C(=O)NC2(C(F)(F)F)C(=O)Nc3c2c(=O)[nH]c(=O)n3-c2ccccc2)cc1` (stereo unspecified), inactive: 2.63%.
Regarding `O=C(NCc1ccccc1)c1nc(S(=O)(=O)Cc2ccccc2)ncc1Cl`, the Potency is active: 16.5 µM.
Consider `CN1CCc2nc3sc(C(=O)Nc4ccccc4OC(F)(F)F)c(N)c3cc2C1`, for which the “activity change, negative = inhibition” value is inactive: -9.81%.
Regarding `Cc1ccc(Cn2c(SCC(=O)C(C)(C)C)nc3ccsc3c2=O)cc1`, the “activity change, negative = inhibition” value was inactive: -7.9%.
On the same count and under the same terms, in the case of `CC1=Nc2cc(C(=O)NCCc3ccccc3)ccc2Sc2c(C)ccc(C)c21` it was inactive: -12.7%; in that of `COc1ccc(NC(=O)Cn2c(=O)n(-c3ccc(C)cc3)c(=O)c3c2cnn3C)cc1`, inactive: -14.6%.
Same read-out and setting: as for `O=C(Nc1ccc2nc(SCC(=O)N3CCCC3)sc2c1)c1cccc(Cl)c1`, the figure is inactive: -9.88%.
On the same count and under the same terms, in the case of `CCOC(=O)c1c(C)[nH]c(C)c1S(=O)(=O)N(C)CC(=O)Nc1ccc(C)c(N(C)C)c1` it was inactive: -2.12%.
For `CC(C)CCNC(=O)C1CCN(c2nc3ccc(Cl)cc3[nH]2)CC1`, the “activity change, negative = inhibition” value was inactive: 12.8%.
As for `COc1ccc(C)cc1NC(=O)c1ccc(=O)n(Cc2ccccc2)c1`, the “activity change, negative = inhibition” value was inactive: -0.878%.
The same measure, in the same setting: in the case of `COC(=O)c1cc2occc2n1Cc1nc(-c2cccc(Cl)c2)oc1C` it was inactive: 1.05%.
Still for that read-out and setting: as for `COc1ccc(OC)c(CCNC(=O)c2cnn(-c3ccccc3Cl)c2C2CCN(C(=O)OC(C)(C)C)CC2)c1`, the figure is inactive: 2.24%.
The same measure, in the same setting: in the case of `COc1ccc(Nc2nc3c(S(=O)(=O)c4ccccc4)nnn3c3ccsc23)cc1OC` it was inactive: -5.41%.
Turning to `Cc1cccc(C(=O)Nc2c(C(=O)NCc3ccc(Cl)cc3)sc3nc(C)cc(C)c23)c1`, the Potency is active: 13.1 µM.
On to `CC(=O)Nc1ccc(S(=O)(=O)Nc2cc(-c3cn4ccccc4n3)ccc2C)cc1`, for which the “activity change, negative = inhibition” value was inactive: 0.208%.
In the case of `COc1ccc(CCNC(=O)c2cn(C)c3ccc(S(=O)(=O)N(C)C4CCCCC4)cc3c2=O)cc1OC`, the “activity change, negative = inhibition” value was inactive: 4.19%.
Take `COc1ccc(-c2nsc(NC(=O)C(C)Oc3ccc(Cl)c(C)c3)n2)cc1` (stereo unspecified): the “activity change, negative = inhibition” value is inactive: -0.0543%.
With `COc1cccc(-n2c(=O)c3c(C)c(C)sc3n(CC(=O)NCc3ccccc3)c2=O)c1`, the “activity change, negative = inhibition” value is inactive: 4.09%.
With `COc1ccccc1NC(=O)C1=C(C)Nc2nnnn2C1c1cc(Br)c(O)c(OC)c1` (stereo unspecified), the “activity change, negative = inhibition” value was inactive: 0%.
In the case of `Cc1ccc(C)c(Cn2c(=O)cc(C)c3c(C)nn(-c4cccc(F)c4)c32)c1`, the “activity change, negative = inhibition” value is inactive: -2.76%.
Still for that read-out and setting: in the case of `COc1ccc(NC(=O)c2cnc(Nc3ccc(C)c(Cl)c3)c3ccccc23)cc1OC` it was inactive: 0.723%; in that of `CCCN(CCC)CCNC(=O)c1ccc2c(c1)NC(=O)C(CS(=O)(=O)Cc1cccc(Br)c1)N2` (stereo unspecified), inactive: 0.906%; in that of `Cc1sc2ncn(CC(=O)N3CCN(c4cccc(Cl)c4)CC3)c(=O)c2c1S(=O)(=O)N1CCN(c2ncccn2)CC1`, inactive: -20.9%.
With `COc1ccccc1N1CCN(S(=O)(=O)CCNC(=O)COc2ccc(C(C)C)cc2)CC1`, the “activity change, negative = inhibition” value is inactive: -0.195%.
As to `CCOc1ccccc1N1CC(c2nc3ccccc3n2Cc2c(C)cc(C)cc2C)CC1=O` (stereo unspecified), the “activity change, negative = inhibition” value is inactive: -1.85%.
On to `COc1ccc(NC(=O)c2ccc3c(SCC(=O)O)c4c(nc3c2)CCC4)c(OC)c1`, for which the “activity change, negative = inhibition” value was inactive: -1.56%.
Same read-out and setting: as for `COc1ccc(-c2nc(C)c(CCNC(=O)C(=O)Nc3cc(C)cc(C)c3)s2)cc1OC`, the figure is inactive: -0.717%; as for `COc1ccc(-c2nc(SCc3cc(=O)c4cc(C)ccc4[nH]3)n[nH]2)cc1`, inactive: -1.64%; as for `CC(=O)N1c2ccc(S(=O)(=O)NCC3CCC(C(=O)Nc4cccc(C)c4C)CC3)cc2CC1C` (stereo unspecified), inactive: -18.8%.
The same measure, in the same setting: in the case of `CCOCCCNC(=O)C(c1ccc(OC)cc1)N(Cc1ccc2c(c1)OCO2)C(=O)c1ccccc1O` (stereo unspecified) it was inactive: -14.5%; in that of `Cc1ccc(NC(=O)Cn2nc(C)n3cccc3c2=O)c(C)c1`, inactive: -2.74%.
On to `COc1ccc(N2CC(C(=O)NCc3nnnn3-c3ccc(C)c(C)c3)CC2=O)cc1` (stereo unspecified), for which the “activity change, negative = inhibition” value is inactive: 2.93%.
On to `COc1ccccc1NC(=O)Cn1c(=O)c(CNc2ccc(C)cc2)cc2cc3c(cc21)OCCO3`, for which the “activity change, negative = inhibition” value is inactive: -10.6%.
`Cc1cccc(N2C(=O)CSC23C(=O)N(CC(=O)NCc2ccccc2Cl)c2ccccc23)c1` (stereo unspecified): the “activity change, negative = inhibition” value was inactive: -0.371%.
Still for that read-out and setting: in the case of `COc1ccc(CCNC(=O)C(=O)NCC(c2ccco2)S(=O)(=O)c2ccccc2)cc1` (stereo unspecified) it was inactive: -8.46%; in that of `O=C(Cn1c(SCCOc2ccc(Cl)cc2)nc2ccccc21)N1CCCCC1`, inactive: -0.854%; in that of `COc1ccc(-c2nnc3n2N(C(C)=O)C(c2ccc(Cl)c(Cl)c2)=C(C(C)=O)S3)cc1`, inactive: -0.985%.
The same measure, in the same setting: as for `COc1ccc2cc3cc(C(=O)N4CCN(c5ccccc5F)CC4)oc3nc2c1`, the figure is inactive: 1.11%.
For `O=c1[nH]c(=O)n(C2CCCCC2)c(O)c1C1=Nc2ccccc2SC(c2ccc(Cl)cc2)C1` (stereo unspecified), the “activity change, negative = inhibition” value is inactive: -1.29%.
In the case of `CCCOc1ccc(C2CC(=O)Nc3c2c(C)nn3-c2nncc(-c3cccc(OC)c3)n2)cc1OC` (stereo unspecified), the “activity change, negative = inhibition” value was inactive: -2.87%.
Consider `Cc1ccc(NC(=O)Nc2sc3nc4n(c(=O)c3c2C)CCC(C)CC4)c(Cl)c1` (stereo unspecified), for which the “activity change, negative = inhibition” value is inactive: -5.01%.
